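Five compound concentrations were applied to cells in 96-well plates for 48 hours; endpoints were derived by simple linear interpolation of the resulting dose-response curve. GI50 = concentration required for 50% inhibition of growth.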 Some entries of the source have several records that differ or are many. They are shown here; other results are not. There may be further records. For part of these data: A record mostly stands for its own series of concentrations, which the source does not state; a value can be the end of its range.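 Definition used: TGI = concentration required for complete inhibition of growth.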 For part of these data: Results that share an entry repeat one measurement in other runs, samples, wells, individuals or studies. Marks in square brackets tell the records apart. The letters are not those of the source and start again with each entry.
Columns and labels:
Test in all cases: NCI-60 cell line screen, 48 h
HCT-116 colon = test system: HCT-116 colon
SR leukemia = test system: SR leukemia
NCI-H460 lung = test system: NCI-H460 lung
M14 melanoma = test system: M14 melanoma
CCRF-CEM leukemia = test system: CCRF-CEM leukemia
SF-268 CNS = test system: SF-268 CNS
NCI-H23 lung = test system: NCI-H23 lung
OVCAR-8 ovarian = test system: OVCAR-8 ovarian
XF 498 CNS = test system: XF 498 CNS
U251 CNS = test system: U251 CNS
SK-OV-3 ovarian = test system: SK-OV-3 ovarian
HOP-92 NSCLC = test system: HOP-92 NSCLC
MDA-MB-435 = test system: MDA-MB-435
HL-60(TB) leukemia = test system: HL-60(TB) leukemia
NCI/ADR-RES ovarian = test system: NCI/ADR-RES ovarian
IGROV1 ovarian = test system: IGROV1 ovarian
MOLT-4 leukemia = test system: MOLT-4 leukemia
RPMI-8226 leukemia = test system: RPMI-8226 leukemia
OVCAR-4 ovarian = test system: OVCAR-4 ovarian
K-562 leukemia = test system: K-562 leukemia

COc1cc2c(c(OC)c1OC)-c1ccc(SC)c(=O)cc1[C@@H](NCc1ccc([N+](=O)[O-])cc1)CC2
TGI (HCT-116 colon): 17.4 nM and 1.08 µM
TGI (SR leukemia): 9.44 nM and > 100 µM
TGI (NCI-H460 lung): 21.6 nM and > 100 µM
TGI (M14 melanoma): 315 nM and 79.4 µM
TGI (CCRF-CEM leukemia): 696 nM and > 100 µM
TGI (SF-268 CNS): 526 nM and > 100 µM
TGI (NCI-H23 lung): 9.36 nM and 88.9 µM
TGI (OVCAR-8 ovarian): 28.9 nM and > 100 µM
TGI (XF 498 CNS): 403 nM and 6.89 µM
TGI (U251 CNS): 21.5 nM and > 100 µM
TGI (SK-OV-3 ovarian): 23.9 nM and > 100 µM

COc1ccc(-c2cc3c(C)nc(N)nc3n(C3CCC(OCCO)CC3)c2=O)cn1 (centres undefined)
TGI (HOP-92 NSCLC): 575 nM [sample A, mean of 2 tests] and 49.9 nM [sample B, 1 test]

CCCCCC(O)C(O)CCC[C@H](O)[C@H]1CC[C@H]([C@H]2CC[C@H]([C@H](O)CCCCCCCCCCCCC3=C[C@H](C)OC3=O)O2)O1 (some centres undefined)
TGI (MDA-MB-435): 7.81 µM and > 100 µM

C=C1C(C)C2C(Cc3ccccc3)NC(=O)C23OC(=O)/C=C\CC(=O)CCC(C)C/C=C/C3C1O (centres undefined)
TGI (HL-60(TB) leukemia): 397 nM [mean of 2 tests] and 5.28 µM [mean of 7 tests]
GI50 (NCI/ADR-RES ovarian): 58.5 nM [mean of 2 tests] and 3.43 µM [mean of 7 tests]
TGI (CCRF-CEM leukemia): 243 nM [mean of 2 tests] and 8.74 µM [mean of 6 tests]

Cc1cc(-c2c(F)cc3c4nn([C@H]5CC[C@@H](N(C)C)CC5)c(=O)c-4cn(C4CC4)c3c2F)cc(C)n1
TGI (HOP-92 NSCLC): 170 nM and 1.76 µM
TGI (IGROV1 ovarian): 810 nM and 10.8 µM
TGI (M14 melanoma): 230 nM and 3 µM
TGI (MOLT-4 leukemia): 4.99 nM and 178 nM
TGI (CCRF-CEM leukemia): 36.2 nM and 945 nM
TGI (RPMI-8226 leukemia): 117 nM and 2.61 µM
TGI (OVCAR-4 ovarian): 711 nM and > 22.5 µM
TGI (K-562 leukemia): 230 nM and > 100 µM

Reference: PubChem BioAssay (NCI)
